# Assay results as given in the supplement of paper PMC11166567.
# Some of the results follow.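 Rule for the calls: active = permutation test q below 0.05 after Benjamini-Hochberg correction; inactive = q of 0.05 or more.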
# System: A549
# Experiment: mean average precision of replicate retrieval against DMSO controls (Cell Painting phenotypic activity) (fraction (0-1)); higher = stronger, more reproducible morphological phenotype distinct from DMSO; extreme values may be limits of the assay
# Settings: 24 h; 5 µM
# 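Note: cosine similarity of well-level aggregated Cell Painting profiles ranks each compound's replicate wells against DMSO wells, four replicate plates, significance from 100,000 rank shuffles.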
row,SMILES,mean average precision
1,O/N=C/c1ccc(-c2ccc(O)c(F)c2)c(Cl)c1O,inactive: 0.26
2,Cc1nc(Nc2n[nH]c3c2CN(C(=O)N[C@H](CN(C)C)c2ccccc2)C3(C)C)c2sccc2n1,active: 0.35
3,C/C(=C\c1csc(C)n1)[C@@H]1C[C@@H]2O[C@]2(C)CCC[C@H](C)[C@H](O)[C@@H](C)C(=O)C(C)(C)[C@@H](O)CC(=O)N1,active: 1
4,Cc1ccc(Sc2cncc3sc(C(N)=O)cc23)cc1,active: 0.572
5,CC1(C)CNc2cc(NC(=O)c3cccnc3NCc3ccncc3)ccc21,active: 0.663
6,FC(F)OC(Cl)C(F)(F)F (stereo not drawn),inactive: 0.138
7,CCOC(=O)C1=C(C)NC(C)=C(C(=O)OC)C1c1cccc(Cl)c1Cl (stereo not drawn),active: 0.91
8,c1ccc(C(O[C@@H]2CCCN(CCc3ccc4c(c3)OCO4)C2)c2ccccc2)cc1,inactive: 0.22
9,CN(C)c1ccc(O)c2c1C[C@H]1C[C@H]3[C@H](N(C)C)C(=O)C(C(N)=O)C(=O)[C@@]3(O)C(=O)C1C2=O (stereo partly drawn),inactive: 0.109
10,CC(=O)Oc1cccc2c1C(=O)c1c(OC(C)=O)cc(C(=O)O)cc1C2=O,inactive: 0.156
11,Nc1ncnc2c1c(-c1cccc(OCc3ccccc3)c1)cn2C1CC(CN2CCCC2)C1 (stereo not drawn),active: 1
12,O=C(O)c1ccccc1Nc1cccc(C(F)(F)F)c1,active: 0.505
13,CCC(C)(C)C(=O)O[C@H]1C[C@@H](C)C=C2C=C[C@H](C)[C@H](CC[C@@H]3C[C@@H](O)CC(=O)O3)[C@H]21,inactive: 0.271
14,N#CC1(c2ccc(NC(=O)c3cccnc3NCc3ccncc3)cc2)CCCC1,active: 0.925
15,COC1=C2C[C@@H](C)C[C@H](OC)[C@H](O)[C@@H](C)/C=C(\C)[C@H](OC(N)=O)[C@@H](OC)/C=C/C=C(\C)C(=O)NC(=CC1=O)C2=O,active: 0.62
16,Cc1ccc(-n2sc(=O)n(Cc3ccc(F)cc3)c2=O)cc1,inactive: 0.153
17,CCn1cc(-c2ccnc3[nH]c(-c4cccc(CN(C)C)c4)cc23)c(-c2ccc(NC(=O)N(C)C)cc2)n1,active: 1

row,SMILES,mean average precision
1,CC(C)CC(=O)Nc1n[nH]c2c1CN(C(=O)C1CCN(C)CC1)C2(C)C,active: 0.828
2,Cc1cc2c(s1)Nc1ccccc1N=C2N1CCN(C)CC1,active: 0.767
3,O=C(NCCN1CCC(n2c(=O)[nH]c3cc(Cl)ccc32)CC1)c1ccc(F)cc1,active: 1
4,CCOC(=O)C1=C(COCCN)NC(C)=C(C(=O)OC)C1c1ccccc1Cl (stereo not drawn),active: 0.622
5,Cn1cc(-c2ccc3nnc(Sc4ccc5ncccc5c4)n3n2)cn1,inactive: 0.265
6,O=C(O)c1ccc(-n2nc(-c3ccccc3O)nc2-c2ccccc2O)cc1,active: 1
7,COc1c2occc2cc2ccc(=O)oc12,active: 0.497
8,CC(=O)Oc1cc2c(s1)CCN(C(C(=O)C1CC1)c1ccccc1F)C2 (stereo not drawn),active: 0.645
9,COCCOC(=O)C1=C(C)NC(C)=C(C(=O)OC(C)C)C1c1cccc([N+](=O)[O-])c1 (stereo not drawn),active: 0.367
10,C=C(NC(=O)C(=C)NC(=O)c1csc(C2=NC3c4csc(n4)C4NC(=O)c5csc(n5)C(C(C)(O)C(C)O)NC(=O)C5CSC(=N5)C(=CC)NC(=O)C(C(C)O)NC(=O)c5csc(n5)C3(CC2)NC(=O)C(C)NC(=O)C(=C)NC(=O)C(C)NC(=O)C(C(C)CC)NC2C=Cc3c(C(C)O)cc(nc3C2O)C(=O)OC4C)n1)C(N)=O (stereo not drawn),active: 0.979
11,CCOC(=O)c1cc(C#N)c(N2CCC(C(=O)NS(=O)(=O)Cc3ccccc3)CC2)nc1C,active: 0.623
12,OCCn1cc(-c2cnc3nnn(Cc4ccc5ncccc5c4)c3n2)cn1,inactive: 0.264
13,NC(CO)(CO)CO,inactive: 0.279
14,CCCCOc1cc(CC2CNC(=O)N2)ccc1OC (stereo not drawn),active: 0.412
15,CCCCc1nc(-c2ccc(OCCCN(CC)CC)cc2)cn1-c1ccc(Oc2ccc(Cl)cc2)cc1,active: 1
16,CC(OC(=O)NCC1(CC(=O)O)CCCCC1)OC(=O)C(C)C (stereo not drawn),active: 0.453
17,C=C[C@H]1CN2CC[C@H]1C[C@@H]2[C@H](O)c1ccnc2ccc(OC)cc12,active: 0.324

# Same assay, conditions: 48 h; 5 µM
row,SMILES,mean average precision
1,O/N=C/c1ccc(-c2ccc(O)c(F)c2)c(Cl)c1O,active: 0.657
2,Cc1nc(Nc2n[nH]c3c2CN(C(=O)N[C@H](CN(C)C)c2ccccc2)C3(C)C)c2sccc2n1,active: 0.436
3,C/C(=C\c1csc(C)n1)[C@@H]1C[C@@H]2O[C@]2(C)CCC[C@H](C)[C@H](O)[C@@H](C)C(=O)C(C)(C)[C@@H](O)CC(=O)N1,active: 1
4,Cc1ccc(Sc2cncc3sc(C(N)=O)cc23)cc1,active: 1
5,CC1(C)CNc2cc(NC(=O)c3cccnc3NCc3ccncc3)ccc21,active: 1
6,FC(F)OC(Cl)C(F)(F)F (stereo not drawn),active: 0.483
7,CCOC(=O)C1=C(C)NC(C)=C(C(=O)OC)C1c1cccc(Cl)c1Cl (stereo not drawn),active: 0.883
8,c1ccc(C(O[C@@H]2CCCN(CCc3ccc4c(c3)OCO4)C2)c2ccccc2)cc1,active: 0.591
9,CN(C)c1ccc(O)c2c1C[C@H]1C[C@H]3[C@H](N(C)C)C(=O)C(C(N)=O)C(=O)[C@@]3(O)C(=O)C1C2=O (stereo partly drawn),active: 0.411
10,CC(=O)Oc1cccc2c1C(=O)c1c(OC(C)=O)cc(C(=O)O)cc1C2=O,active: 0.604
11,Nc1ncnc2c1c(-c1cccc(OCc3ccccc3)c1)cn2C1CC(CN2CCCC2)C1 (stereo not drawn),active: 1
12,O=C(O)c1ccccc1Nc1cccc(C(F)(F)F)c1,active: 0.806
13,CCC(C)(C)C(=O)O[C@H]1C[C@@H](C)C=C2C=C[C@H](C)[C@H](CC[C@@H]3C[C@@H](O)CC(=O)O3)[C@H]21,active: 0.861
14,N#CC1(c2ccc(NC(=O)c3cccnc3NCc3ccncc3)cc2)CCCC1,active: 1
15,COC1=C2C[C@@H](C)C[C@H](OC)[C@H](O)[C@@H](C)/C=C(\C)[C@H](OC(N)=O)[C@@H](OC)/C=C/C=C(\C)C(=O)NC(=CC1=O)C2=O,active: 1
16,Cc1ccc(-n2sc(=O)n(Cc3ccc(F)cc3)c2=O)cc1,active: 0.451
17,CCn1cc(-c2ccnc3[nH]c(-c4cccc(CN(C)C)c4)cc23)c(-c2ccc(NC(=O)N(C)C)cc2)n1,active: 1

row,SMILES,mean average precision
1,CC(C)CC(=O)Nc1n[nH]c2c1CN(C(=O)C1CCN(C)CC1)C2(C)C,active: 1
2,Cc1cc2c(s1)Nc1ccccc1N=C2N1CCN(C)CC1,active: 0.808
3,O=C(NCCN1CCC(n2c(=O)[nH]c3cc(Cl)ccc32)CC1)c1ccc(F)cc1,active: 1
4,CCOC(=O)C1=C(COCCN)NC(C)=C(C(=O)OC)C1c1ccccc1Cl (stereo not drawn),active: 1
5,Cn1cc(-c2ccc3nnc(Sc4ccc5ncccc5c4)n3n2)cn1,active: 0.624
6,O=C(O)c1ccc(-n2nc(-c3ccccc3O)nc2-c2ccccc2O)cc1,active: 1
7,COc1c2occc2cc2ccc(=O)oc12,active: 0.485
8,CC(=O)Oc1cc2c(s1)CCN(C(C(=O)C1CC1)c1ccccc1F)C2 (stereo not drawn),active: 0.51
9,COCCOC(=O)C1=C(C)NC(C)=C(C(=O)OC(C)C)C1c1cccc([N+](=O)[O-])c1 (stereo not drawn),active: 0.542
10,C=C(NC(=O)C(=C)NC(=O)c1csc(C2=NC3c4csc(n4)C4NC(=O)c5csc(n5)C(C(C)(O)C(C)O)NC(=O)C5CSC(=N5)C(=CC)NC(=O)C(C(C)O)NC(=O)c5csc(n5)C3(CC2)NC(=O)C(C)NC(=O)C(=C)NC(=O)C(C)NC(=O)C(C(C)CC)NC2C=Cc3c(C(C)O)cc(nc3C2O)C(=O)OC4C)n1)C(N)=O (stereo not drawn),active: 1
11,CCOC(=O)c1cc(C#N)c(N2CCC(C(=O)NS(=O)(=O)Cc3ccccc3)CC2)nc1C,active: 0.334
12,OCCn1cc(-c2cnc3nnn(Cc4ccc5ncccc5c4)c3n2)cn1,active: 0.738
13,NC(CO)(CO)CO,active: 0.494
14,CCCCOc1cc(CC2CNC(=O)N2)ccc1OC (stereo not drawn),active: 0.393
15,CCCCc1nc(-c2ccc(OCCCN(CC)CC)cc2)cn1-c1ccc(Oc2ccc(Cl)cc2)cc1,active: 1
16,CC(OC(=O)NCC1(CC(=O)O)CCCCC1)OC(=O)C(C)C (stereo not drawn),active: 0.918
17,C=C[C@H]1CN2CC[C@H]1C[C@@H]2[C@H](O)c1ccnc2ccc(OC)cc12,active: 0.787
